Data published in article PMC9911399, “Two distinct binding modes provide the RNA-binding protein RbFox with extraordinary sequence specificity”.
Residue numbers refer to the chain shown, from its start. Some of the results follow.

T1: RBFOX1 RRM (Homo sapiens, UniProt Q9NWB1 109-208)
T1 sequence: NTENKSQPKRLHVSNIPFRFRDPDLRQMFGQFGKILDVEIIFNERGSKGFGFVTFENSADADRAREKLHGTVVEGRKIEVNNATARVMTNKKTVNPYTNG

B1: GUCAAUU (DNA:RNA)
RNA: GGGAGACCGGAAUUCAGAUUGUCCGUCAAUUUUAAAUCCCGUCGUAGCCACCA
DNA 1: CAATCTGAATTCCGGTCTCCC
DNA 2: TGGTGGCTACGACGGGATT
B2: GAGCUAA (DNA:RNA)
RNA: B1 RNA with U26A, C27G, A28C, A29U, U30A, U31A
DNA 1: CAATCTGAATTCCGGTCTCCC
DNA 2: TGGTGGCTACGACGGGATT
B3: CGCCUAA (DNA:RNA)
RNA: B1 RNA with G25C, U26G, A28C, A29U, U30A, U31A
DNA 1: CAATCTGAATTCCGGTCTCCC
DNA 2: TGGTGGCTACGACGGGATT
B4: ACGCGGC (DNA:RNA)
RNA: GGGAGACCGGAAUUCAGAUUGUCCACGCGGCUUAAAUCCCGUCGUAGCCACCA
DNA 1: CAATCTGAATTCCGGTCTCCC
DNA 2: TGGTGGCTACGACGGGATT
B5: GGUCAGU (DNA:RNA)
RNA: B1 RNA with U26G, C27U, A28C, U30G
DNA 1: CAATCTGAATTCCGGTCTCCC
DNA 2: TGGTGGCTACGACGGGATT
B6: CGAAUUC (DNA:RNA)
RNA: B1 RNA with G25C, U26G, C27A, A29U, U31C
DNA 1: CAATCTGAATTCCGGTCTCCC
DNA 2: TGGTGGCTACGACGGGATT
B7: UCUUGUA (DNA:RNA)
RNA: B4 RNA with A25U, G27U, C28U, G30U, C31A
DNA 1: CAATCTGAATTCCGGTCTCCC
DNA 2: TGGTGGCTACGACGGGATT
B8: GCGCCGG (DNA:RNA)
RNA: B4 RNA with A25G, G29C, C31G
DNA 1: CAATCTGAATTCCGGTCTCCC
DNA 2: TGGTGGCTACGACGGGATT
B9: UGUCCGC (DNA:RNA)
RNA: B4 RNA with A25U, C26G, G27U, G29C
DNA 1: CAATCTGAATTCCGGTCTCCC
DNA 2: TGGTGGCTACGACGGGATT
B10: CUCACCC (DNA:RNA)
RNA: B1 RNA with G25C, A29C, U30C, U31C
DNA 1: CAATCTGAATTCCGGTCTCCC
DNA 2: TGGTGGCTACGACGGGATT
B11: UUAGUUC (DNA:RNA)
RNA: B1 RNA with G25U, C27A, A28G, A29U, U31C
DNA 1: CAATCTGAATTCCGGTCTCCC
DNA 2: TGGTGGCTACGACGGGATT
B12: GCGGUUA (DNA:RNA)
RNA: B4 RNA with A25G, C28G, G29U, G30U, C31A
DNA 1: CAATCTGAATTCCGGTCTCCC
DNA 2: TGGTGGCTACGACGGGATT
B13: UGACUCA (DNA:RNA)
RNA: B4 RNA with A25U, C26G, G27A, G29U, G30C, C31A
DNA 1: CAATCTGAATTCCGGTCTCCC
DNA 2: TGGTGGCTACGACGGGATT
B14: GCCGGGA (DNA:RNA)
RNA: B4 RNA with A25G, G27C, C28G, C31A
DNA 1: CAATCTGAATTCCGGTCTCCC
DNA 2: TGGTGGCTACGACGGGATT
B15: UUUAUGC (DNA:RNA)
RNA: B4 RNA with A25U, C26U, G27U, C28A, G29U
DNA 1: CAATCTGAATTCCGGTCTCCC
DNA 2: TGGTGGCTACGACGGGATT
B16: AAAACCU (DNA:RNA)
RNA: B1 RNA with G25A, U26A, C27A, A29C, U30C
DNA 1: CAATCTGAATTCCGGTCTCCC
DNA 2: TGGTGGCTACGACGGGATT
B17: AAUUCCU (DNA:RNA)
RNA: B4 RNA with C26A, G27U, C28U, G29C, G30C, C31U
DNA 1: CAATCTGAATTCCGGTCTCCC
DNA 2: TGGTGGCTACGACGGGATT
B18: UCUCUUG (DNA:RNA)
RNA: B4 RNA with A25U, G27U, G29U, G30U, C31G
DNA 1: CAATCTGAATTCCGGTCTCCC
DNA 2: TGGTGGCTACGACGGGATT
B19: CCGAUCC (DNA:RNA)
RNA: B4 RNA with A25C, C28A, G29U, G30C
DNA 1: CAATCTGAATTCCGGTCTCCC
DNA 2: TGGTGGCTACGACGGGATT
B20: UCCAAUG (DNA:RNA)
RNA: B1 RNA with G25U, U26C, U31G
DNA 1: CAATCTGAATTCCGGTCTCCC
DNA 2: TGGTGGCTACGACGGGATT
B21: GUGGGCA (DNA:RNA)
RNA: B4 RNA with A25G, C26U, C28G, G30C, C31A
DNA 1: CAATCTGAATTCCGGTCTCCC
DNA 2: TGGTGGCTACGACGGGATT
B22: UUAUCUG (DNA:RNA)
RNA: B1 RNA with G25U, C27A, A28U, A29C, U31G
DNA 1: CAATCTGAATTCCGGTCTCCC
DNA 2: TGGTGGCTACGACGGGATT
B23: AUAAGCC (DNA:RNA)
RNA: B4 RNA with C26U, G27A, C28A, G30C
DNA 1: CAATCTGAATTCCGGTCTCCC
DNA 2: TGGTGGCTACGACGGGATT
B24: UAGUGCG (DNA:RNA)
RNA: B4 RNA with A25U, C26A, C28U, G30C, C31G
DNA 1: CAATCTGAATTCCGGTCTCCC
DNA 2: TGGTGGCTACGACGGGATT
B25: UGGAGAC (DNA:RNA)
RNA: B4 RNA with A25U, C26G, C28A, G30A
DNA 1: CAATCTGAATTCCGGTCTCCC
DNA 2: TGGTGGCTACGACGGGATT
B26: UAGUCUU (DNA:RNA)
RNA: B1 RNA with G25U, U26A, C27G, A28U, A29C
DNA 1: CAATCTGAATTCCGGTCTCCC
DNA 2: TGGTGGCTACGACGGGATT
B27: GACAUUU (DNA:RNA)
RNA: B1 RNA with U26A, A29U
DNA 1: CAATCTGAATTCCGGTCTCCC
DNA 2: TGGTGGCTACGACGGGATT
B28: ACAAUAG (DNA:RNA)
RNA: B4 RNA with G27A, C28A, G29U, G30A, C31G
DNA 1: CAATCTGAATTCCGGTCTCCC
DNA 2: TGGTGGCTACGACGGGATT
B29: AUGAAUA (DNA:RNA)
RNA: B1 RNA with G25A, C27G, U31A
DNA 1: CAATCTGAATTCCGGTCTCCC
DNA 2: TGGTGGCTACGACGGGATT
B30: CGAGAUU (DNA:RNA)
RNA: B1 RNA with G25C, U26G, C27A, A28G
DNA 1: CAATCTGAATTCCGGTCTCCC
DNA 2: TGGTGGCTACGACGGGATT
B31: CAUUACC (DNA:RNA)
RNA: B4 RNA with A25C, C26A, G27U, C28U, G29A, G30C
DNA 1: CAATCTGAATTCCGGTCTCCC
DNA 2: TGGTGGCTACGACGGGATT

The binders below were run against T1, RBFOX1 RRM (assay: EMSA; HiTS-Eq, 1 nM pool, 10 min; buffer printed only for the single-RNA assays: 10 mM Tris pH 7.5, 150 mM NaCl, 3.4 mM EDTA, 0.001% NP-40, 30 C). Conditions: tags: His6 N-terminal (pET28a); label: 5' 32P.
Summary of the method: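 Purified RbFox RRM, wild type or mutant, was incubated for 10 min in 50 µL with 1 nM of a 5′-radiolabelled RNA pool carrying 7 randomized nucleotides, whose flanks were annealed to DNA oligonucleotides, over a series of increasing protein concentrations. Unbound RNA was resolved on 8% native PAGE, cut out, reverse-transcribed, barcoded by PCR and sequenced on an Illumina HiSeq 2500. Relative association constants were derived from changes in read counts for each RNA species versus the control reaction and normalised to the cognate motif.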

Binder	binding signal
B1	0.00563 KA relative to UGCAUGU
B2	0.00768 KA relative to UGCAUGU
B3	0.00532 KA relative to UGCAUGU
B4	0.0106 KA relative to UGCAUGU
B5	0.0152 KA relative to UGCAUGU
B6	0.00606 KA relative to UGCAUGU
B7	0.00841 KA relative to UGCAUGU
B8	0.00988 KA relative to UGCAUGU
B9	0.0164 KA relative to UGCAUGU
B10	0.00285 KA relative to UGCAUGU
B11	0.0138 KA relative to UGCAUGU
B12	0.0167 KA relative to UGCAUGU
B13	0.0114 KA relative to UGCAUGU
B14	0.0228 KA relative to UGCAUGU
B15	0.0175 KA relative to UGCAUGU
B16	0.000218 KA relative to UGCAUGU

Binder	binding signal
B17	0.000323 KA relative to UGCAUGU
B18	0.0129 KA relative to UGCAUGU
B19	0.00586 KA relative to UGCAUGU
B20	0.00647 KA relative to UGCAUGU
B21	0.0198 KA relative to UGCAUGU
B22	0.0132 KA relative to UGCAUGU
B23	0.00411 KA relative to UGCAUGU
B24	0.0214 KA relative to UGCAUGU
B25	0.007 KA relative to UGCAUGU
B26	0.0135 KA relative to UGCAUGU
B27	0.00507 KA relative to UGCAUGU
B28	0.00314 KA relative to UGCAUGU
B29	0.0031 KA relative to UGCAUGU
B30	0.0112 KA relative to UGCAUGU
B31	0.00161 KA relative to UGCAUGU
